{
  "source": "the BET-seq Pho4 binding data (Le et al. 2018)",
  "note": "Some of the results follow. The energies were worked out here from pooled read counts, against the library average; single values are noisy.",
  "data": [
    {"target": "T1, Pho4 (S. cerevisiae) (UniProt P07270)", "T1 sequence": "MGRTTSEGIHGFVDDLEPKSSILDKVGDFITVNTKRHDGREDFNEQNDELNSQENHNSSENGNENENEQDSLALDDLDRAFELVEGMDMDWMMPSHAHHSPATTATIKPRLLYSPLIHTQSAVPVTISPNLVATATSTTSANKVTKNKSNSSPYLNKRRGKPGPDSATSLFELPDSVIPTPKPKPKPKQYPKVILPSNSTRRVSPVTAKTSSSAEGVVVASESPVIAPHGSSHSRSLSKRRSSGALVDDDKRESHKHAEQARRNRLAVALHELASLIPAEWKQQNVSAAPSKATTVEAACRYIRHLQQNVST", "experiment": "relative binding free energy (BET-seq); higher = weaker binding", "conditions": "reference: library average", "units": {"relative binding free energy": "kcal/mol"}, "values": [
      {"sequence": "CGTAGCACGTGGTTTT", "relative binding free energy": -0.04},
      {"sequence": "TCATTCACGTGATGTG", "relative binding free energy": 0.37},
      {"sequence": "GTTGGCACGTGACTGT", "relative binding free energy": 0.08},
      {"sequence": "GGAGACACGTGGTGTC", "relative binding free energy": 0.07},
      {"sequence": "GTAATCACGTGGGGTC", "relative binding free energy": -0.04},
      {"sequence": "TGTTGCACGTGAGGTC", "relative binding free energy": 0.27},
      {"sequence": "TTGCTCACGTGATAGG", "relative binding free energy": 0.41},
      {"sequence": "GTGTTCACGTGTACTG", "relative binding free energy": 0.26},
      {"sequence": "CACATCACGTGTGGGT", "relative binding free energy": 0.12},
      {"sequence": "TGTGGCACGTGAATCA", "relative binding free energy": 0.24},
      {"sequence": "GTTTGCACGTGTTACG", "relative binding free energy": 0.09},
      {"sequence": "CTTTTCACGTGCGTTT", "relative binding free energy": 0.23},
      {"sequence": "GTGTACACGTGTAAGG", "relative binding free energy": 0.18},
      {"sequence": "TTTGGCACGTGCCTTG", "relative binding free energy": -0.07},
      {"sequence": "ATGGGCACGTGTTAAA", "relative binding free energy": -0.17},
      {"sequence": "GAGTTCACGTGCAAGG", "relative binding free energy": 0.36},
      {"sequence": "GGGGACACGTGTGAGA", "relative binding free energy": 0.21},
      {"sequence": "GTTTACACGTGAGTAT", "relative binding free energy": 0.42},
      {"sequence": "CTGCTCACGTGGGTTG", "relative binding free energy": 0.05},
      {"sequence": "GGGTCCACGTGGGATG", "relative binding free energy": -0.06},
      {"sequence": "AGGGACACGTGAATGG", "relative binding free energy": 0.28},
      {"sequence": "GGGGCCACGTGGGTGT", "relative binding free energy": -0.2},
      {"sequence": "GCTATCACGTGTGGAG", "relative binding free energy": 0.33},
      {"sequence": "GGTTACACGTGGGTCG", "relative binding free energy": -0.06},
      {"sequence": "TGGGACACGTGGAGTT", "relative binding free energy": 0.03},
      {"sequence": "CGGAGCACGTGGAGTT", "relative binding free energy": -0.19},
      {"sequence": "TATAGCACGTGTTGAA", "relative binding free energy": 0.01},
      {"sequence": "TAAGTCACGTGGTGAT", "relative binding free energy": 0.07},
      {"sequence": "TGTCGCACGTGCTATT", "relative binding free energy": -0.16},
      {"sequence": "ATGCTCACGTGGGGGG", "relative binding free energy": 0},
      {"sequence": "GGGCACACGTGAATGG", "relative binding free energy": 0.26},
      {"sequence": "GGAATCACGTGTTAGG", "relative binding free energy": 0.06},
      {"sequence": "TAGTTCACGTGGGTAC", "relative binding free energy": 0.09},
      {"sequence": "ATTACCACGTGGTAGG", "relative binding free energy": -0.08},
      {"sequence": "TGGATCACGTGAGATT", "relative binding free energy": 0.5},
      {"sequence": "GTTGTCACGTGTTAAA", "relative binding free energy": 0.14},
      {"sequence": "GGTTTCACGTGTGAAG", "relative binding free energy": 0.27},
      {"sequence": "TACATCACGTGGGATG", "relative binding free energy": 0.03},
      {"sequence": "GTTATCACGTGAGAGT", "relative binding free energy": 0.35},
      {"sequence": "TAACTCACGTGAAGTT", "relative binding free energy": 0.52},
      {"sequence": "GGTGGCACGTGAGGTT", "relative binding free energy": 0.22},
      {"sequence": "TAAAGCACGTGGGGGA", "relative binding free energy": -0.24},
      {"sequence": "TGTTTCACGTGTGACG", "relative binding free energy": 0.35},
      {"sequence": "TTATCCACGTGTAGTG", "relative binding free energy": 0.08},
      {"sequence": "TTTAACACGTGGTGCT", "relative binding free energy": -0.12},
      {"sequence": "TAGCTCACGTGTGGTT", "relative binding free energy": 0.33},
      {"sequence": "TGTATCACGTGGAATA", "relative binding free energy": 0.19},
      {"sequence": "ATATCCACGTGTGTGT", "relative binding free energy": -0.19},
      {"sequence": "GAAGTCACGTGGTTAG", "relative binding free energy": 0.06},
      {"sequence": "AGTCTCACGTGATGGG", "relative binding free energy": 0.27},
      {"sequence": "TCATTCACGTGGGTAT", "relative binding free energy": 0.2},
      {"sequence": "GTTGTCACGTGTGGTC", "relative binding free energy": 0.27},
      {"sequence": "GTTGTCACGTGGATAG", "relative binding free energy": 0.31},
      {"sequence": "TTTGTCACGTGGCTAG", "relative binding free energy": -0.01},
      {"sequence": "TAAGCCACGTGATGGG", "relative binding free energy": 0.04},
      {"sequence": "AATTGCACGTGAGGTC", "relative binding free energy": 0.22},
      {"sequence": "CTGTGCACGTGTTTGC", "relative binding free energy": -0.04},
      {"sequence": "TATGACACGTGTGGAT", "relative binding free energy": 0.21},
      {"sequence": "GGAGACACGTGGGTAG", "relative binding free energy": -0.07},
      {"sequence": "TATGTCACGTGTTGGG", "relative binding free energy": 0.17},
      {"sequence": "CATAGCACGTGGGTTT", "relative binding free energy": -0.13},
      {"sequence": "ATAATCACGTGTTTAT", "relative binding free energy": 0.12},
      {"sequence": "TGTTTCACGTGGAGGG", "relative binding free energy": 0.3},
      {"sequence": "TGGTTCACGTGCATGC", "relative binding free energy": 0.27},
      {"sequence": "TTAGACACGTGAAGTT", "relative binding free energy": 0.14},
      {"sequence": "TCGTTCACGTGGGAAG", "relative binding free energy": 0.13},
      {"sequence": "GTCTACACGTGGTCGG", "relative binding free energy": 0.11},
      {"sequence": "GTGATCACGTGGGTAA", "relative binding free energy": -0.04},
      {"sequence": "AGGGTCACGTGAGTTC", "relative binding free energy": 0.44},
      {"sequence": "GTTTCCACGTGCGGGT", "relative binding free energy": 0.07},
      {"sequence": "TAGAACACGTGGTGAT", "relative binding free energy": 0.02},
      {"sequence": "GCCTTCACGTGGAGGT", "relative binding free energy": 0.33},
      {"sequence": "CGGGTCACGTGGTAGA", "relative binding free energy": 0.23},
      {"sequence": "TTTTTCACGTGATGAT", "relative binding free energy": 0.36},
      {"sequence": "GGAAACACGTGGTTTA", "relative binding free energy": 0.06},
      {"sequence": "GGGGCCACGTGTGGTA", "relative binding free energy": -0.05},
      {"sequence": "TTTAGCACGTGCGTGC", "relative binding free energy": -0.12},
      {"sequence": "TTTAACACGTGGTGCG", "relative binding free energy": -0.12},
      {"sequence": "TCATGCACGTGTTCGT", "relative binding free energy": -0.06},
      {"sequence": "ACTGGCACGTGTTGGC", "relative binding free energy": -0.06},
      {"sequence": "TCGCTCACGTGGTTTG", "relative binding free energy": 0.19},
      {"sequence": "ATTTTCACGTGCGTGA", "relative binding free energy": 0.29},
      {"sequence": "GCGTGCACGTGGAAGG", "relative binding free energy": 0},
      {"sequence": "CGGGGCACGTGGCTTG", "relative binding free energy": -0.27},
      {"sequence": "TTTTTCACGTGTGCTC", "relative binding free energy": 0.37},
      {"sequence": "ATGTTCACGTGGGCTA", "relative binding free energy": 0.11},
      {"sequence": "GGGCTCACGTGGCGGG", "relative binding free energy": 0.29},
      {"sequence": "GATGACACGTGGTGTC", "relative binding free energy": 0.01},
      {"sequence": "TGAGGCACGTGAGGTC", "relative binding free energy": 0.11},
      {"sequence": "TATTACACGTGGAATG", "relative binding free energy": 0.09},
      {"sequence": "AGAGTCACGTGTTAGT", "relative binding free energy": 0.14},
      {"sequence": "TGGGGCACGTGTTTTT", "relative binding free energy": -0.01},
      {"sequence": "GCTAACACGTGGGTGG", "relative binding free energy": -0.08},
      {"sequence": "GTAGGCACGTGTAACG", "relative binding free energy": -0.02},
      {"sequence": "ACTGGCACGTGATATG", "relative binding free energy": -0.08},
      {"sequence": "TTGGGCACGTGGGTTT", "relative binding free energy": -0.07},
      {"sequence": "TTAATCACGTGGGCGA", "relative binding free energy": -0.03},
      {"sequence": "TAATACACGTGGGGTT", "relative binding free energy": -0.12},
      {"sequence": "AGAAGCACGTGTTGTG", "relative binding free energy": -0.07},
      {"sequence": "TAGCGCACGTGTGATG", "relative binding free energy": -0.07},
      {"sequence": "GGTTACACGTGTTCGT", "relative binding free energy": 0.17},
      {"sequence": "CGGTTCACGTGGATGG", "relative binding free energy": 0.44},
      {"sequence": "TGAGACACGTGAGGCG", "relative binding free energy": 0.26},
      {"sequence": "AGAGTCACGTGCGGCG", "relative binding free energy": 0.09},
      {"sequence": "AGATGCACGTGGTTCT", "relative binding free energy": 0.08},
      {"sequence": "TAATACACGTGTGGAT", "relative binding free energy": 0.1},
      {"sequence": "GGCTGCACGTGGGAAG", "relative binding free energy": -0.15},
      {"sequence": "TTATCCACGTGTGTGG", "relative binding free energy": -0.02},
      {"sequence": "TAGGGCACGTGTGGCG", "relative binding free energy": -0.06},
      {"sequence": "TGTGACACGTGGGCGA", "relative binding free energy": -0.18},
      {"sequence": "ATGTGCACGTGGCGTT", "relative binding free energy": -0.25},
      {"sequence": "ATGTGCACGTGAAATT", "relative binding free energy": 0.14},
      {"sequence": "AGCAGCACGTGGGTTG", "relative binding free energy": -0.37},
      {"sequence": "TAGTTCACGTGAAGCT", "relative binding free energy": 0.3},
      {"sequence": "GTAATCACGTGGCGAT", "relative binding free energy": 0.13}
    ]}
  ]
}
